# In the supplement of paper PMC7726561:
# In all, about 1,100 sequences were measured (“thermal melting temperature (Tm) of peptide-HLA complex”: median about 58, lowest 2% from about 42 on). This is one part of the list.
# Target: HLA-A*02:01
# Experiment: thermal melting temperature (Tm) of peptide-HLA complex; higher = more thermostable pHLA complex
# Conditions: C1R-A*02:01
# 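Also: cell lysates heated 10 min at 37–73 °C, remaining pHLA pulled down with pan-class I antibody, peptides quantified by DIA-MS versus 37 °C, Tm where half the complex is lost.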
row,Sequence,thermal melting temperature [°C]
1,RLTPKLMEV,56.6
2,FIIEKQPPQV,57.7
3,VLQGKLAEV,53.5
4,ALNSKNPQL,59.8
5,TLAETLVNL,55.3
6,ALASHILTA,57.8
7,RLDIIETNV,61.2
8,RLLGYQGIAV,60.2
9,FLDPNNIPKA,61.3
10,YLDQGTQIFL,55.5
11,VLTGLSIRL,57.1
12,SIFKAWAV,55.8
13,FLEPVNPRL,55.3
14,KLDFANNVQL,50.3
15,TLADTAVAAQV,60.7
16,ALLDVTPKAV,60.6
17,SLADVHIEV,63.1
18,VLGELVPRL,55.6
19,YLKDLIEEV,62.8

row,Sequence,thermal melting temperature [°C]
1,YLDFTNPKV,62.7
2,FLDHIIASV,61.4
3,SLNTGIITV,55.1
4,NQMPTQPQV,52.2
5,KMLEIDPQKV,56.1
6,LLEKQQIYL,42.4
7,ALLAELEKI,62.1
8,VLMTQQPRPVL,48.8
9,VLAHTILGV,60.9
10,TLQDIVYKL,56.6
11,VQIEEVRQV,55.2
12,SLPDIKVYL,59.9
13,GLIDVKPLGV,60.7
14,SMLEDVQRA,54.8
15,FLYSDEVQI,54.1
16,VLDSVDVRL,52.9
17,ILAQEIVKA,55.1
18,LLLPFKIIEA,55.8
19,RLINQVLEL,57.2

row,Sequence,thermal melting temperature [°C]
1,FLWPKEVEL,64.6
2,FLQEKSPAV,60.7
3,GLHNVVYGI,60.8
4,RLYHITDQV,56.9
5,VIWGKVTRA,54.3
6,KIIEYSVYL,59.5
7,KIGDFGLATV,59.3
8,GLADASLLKKV,62.5
9,ALYVAVVNV,57.4
10,QLEEEGITFV,46.1
11,FLSDGTIISV,57.5
12,GLLDLPFRV,61.4
13,LLSESNERL,54.3
14,ALESFLKQV,58.9
15,KMDDPTVNWSI,58.8
16,ALLGKLDAINV,59.8
17,GLHFVVPSV,62.4
18,TLYPGRVIL,58
